Holding throughout (test): co-IP; HEK293 cells co-expressing Flag-LRRK2 (R1441G or Y1699C), HA-Rab and GFP-tagged effector, no MLi-2; GFP fusion precipitated with GFP binder Sepharose, 1 h, washed in 50 mM Tris-HCl pH 7.5, 150 mM NaCl; immunoblot
(In general: A western blot detects proteins with antibodies after separation by electrophoresis.)

Protein sequences, listed by entry. Tags and fused reporters are not part of them.
UniProt P61006: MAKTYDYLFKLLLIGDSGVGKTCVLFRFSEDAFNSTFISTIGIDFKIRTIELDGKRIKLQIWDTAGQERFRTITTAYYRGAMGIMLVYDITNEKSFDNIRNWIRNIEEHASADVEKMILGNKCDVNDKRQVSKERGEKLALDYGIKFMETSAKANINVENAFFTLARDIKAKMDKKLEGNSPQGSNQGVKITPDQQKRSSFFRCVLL

The target of experiment [1] is T1, RILPL2-GFP WT (full length) (human) (UniProt Q969X0).
T1 sequence: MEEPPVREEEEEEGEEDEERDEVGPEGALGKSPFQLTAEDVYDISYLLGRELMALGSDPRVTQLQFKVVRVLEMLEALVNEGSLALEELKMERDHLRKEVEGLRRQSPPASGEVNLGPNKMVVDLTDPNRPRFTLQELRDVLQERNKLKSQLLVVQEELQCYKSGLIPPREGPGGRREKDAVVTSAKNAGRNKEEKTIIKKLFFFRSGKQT

In another experiment the target is T2, RILPL2-GFP K149E (human) (UniProt Q969X0).
T2 sequence: T1 sequence with K149E

The target of the next experiment is T3, RILPL2-GFP R132K (human) (UniProt Q969X0).
T3 sequence: T1 sequence with R132K

For another experiment, the target named is T4, RILPL2-GFP R132Q (human) (UniProt Q969X0).
T4 sequence: T1 sequence with R132Q

The next experiment addresses T5, RILPL2-GFP R132E (human) (UniProt Q969X0).
T5 sequence: T1 sequence with R132E

Positions count from the first letter of the chain named. These are yes or no findings as the source states them, for the method shown. Binding seen in cells or lysates may run through a third protein. Some entries that bind do so weakly or less than the wild type. Where a sequence is shown, tags or fusion partners need not be part of it.

As for “HA-Rab8a WT, LRRK2-phosphorylated (pT72) (from UniProt P61006 1-207)”, the binding result in experiment [1] is “binds”; with RILPL2-GFP K149E (human) it was “no binding”; with RILPL2-GFP R132K (human) it was “no binding”; with RILPL2-GFP R132Q (human), “no binding”; with RILPL2-GFP R132E (human) it was “no binding”.

The values are drawn from PMC7139218, “Structural Basis for Rab8a Recruitment of RILPL2 via LRRK2 Phosphorylation of Switch 2” (Structure(London, England:1993), 2020).
